Laboratory results: PubChem BioAssay (Tox21)
Where “and” joins values, the source holds several entries; their conditions need not be identical. Equal entries are not always repeated. The shares of active, inactive and inconclusive entries below differ from those in the screen. For some of these results: Where the call is inconclusive, the potency comes from a doubtful curve fit. Where a structure was tested more than once in an assay, its records may differ in their call. Calls of active or inactive are those of the source. Unless noted, the call rests on the fitted dose curve; in most records, active means well fitted curve in the direction sought with a large enough effect in the repeat runs; inconclusive means weak or mixed curves; inactive means no such curve, though single readings can be large; an effect the other way counts as inactive or inconclusive.

Key:
[1] = qHTS assay to identify small molecule agonists of the estrogen receptor beta (ER-beta) signaling pathway - cell viability counter screen (AID 1259380); further: potency means the concentration at half of the fitted maximal effect; nearly all actives have a fitted effect of over 30% in size
Summary of the method: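 Cells used were ER-beta-UAS-bla HEK293T in medium with 2% charcoal-stripped FBS. They were treated for 16 hr at 37C. Viability came from CellTiter-Glo luminescence.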

[2] = qHTS assay to identify small molecule antagonists of the estrogen receptor beta (ER-beta) signaling pathway - cell viability counter screen (AID 1259382); further: potency means the concentration at half of the fitted maximal effect; nearly all actives have a fitted effect of over 55% in size
Summary of the method: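 Agonist-stimulated (1nM E2) ER-beta-UAS-bla HEK293T cells are incubated with library compounds for 16 hr at 37C. Cell viability is then assessed in the reporter-assay wells by adding CellTiter-Glo and reading luminescence after 30 min.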

[3] = target: Thyrotropin receptor (Homo sapiens) (UniProt P16473); experiment: qHTS assay to identify small molecule antagonists of the thyroid stimulating hormone receptor (TSHR) signaling pathway (AID 1259385; calls by dose curve; further: nearly all actives have a fitted effect of over 20% in size; further: potency means the concentration at half of the fitted maximal effect; on activity change, negative = inhibition: on the % scale 0 is the no-effect control and ±100 the full control effect); details: TSHR-HEK293 cAMP HTRF, TSH-stimulated antagonist mode; activity change, negative = inhibition: at 92.4 µM (top of the series) unless noted
Summary of the method: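 TSHR-HEK293 cells (800/well) plated 18 h, then compounds with Ro20-1724 and TSH at 1.5 ng/mL final, 30 min at room temperature. cAMP quantified by HTRF (cAMP-d2/anti-cAMP-cryptate, 1 h); 15 concentrations in triplicate.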

[4] = target: Progesterone receptor (Homo sapiens) (UniProt P06401); experiment: qHTS assay to identify small molecule agonists of the progesterone receptor (PR) signaling pathway (AID 1346784; calls by dose curve; further: nearly all actives have a fitted effect of over 30% in size; further: potency means the concentration at half of the fitted maximal effect; on activation: on the % scale 0 is the no-effect control and ±100 the full control effect); details: PR-UAS-bla HEK293T, beta-lactamase FRET ratio, 16 h; activation: at 92.4 µM (top of the series) unless noted
Summary of the method: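 Agonist qHTS: compounds pinned onto 3,000 PR-UAS-bla HEK 293T cells per well in charcoal-stripped serum medium, 16hr at 37C, then beta-lactamase activity measured by LiveBLAzer FRET fluorescence after 2 hours at room temperature.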

[5] = qHTS assay to identify small molecule antagonists of the progesterone receptor (PR) signaling pathway - cell viability counter screen (AID 1346798); further: potency means the concentration at half of the fitted maximal effect; nearly all actives have a fitted effect of over 50% in size
Summary of the method: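 Cytotoxicity read as CellTiter-Glo luminescence (30 min, room temperature) in the same wells as the beta-lactamase readout. HEK293T PR-UAS-bla cells in charcoal-stripped 2% FBS received compound and R5020, then 16 h at 37C, 5% CO2.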

[6] = qHTS assay to identify small molecule agonists of the progesterone receptor (PR) signaling pathway - cell viability counter screen (AID 1346799; calls by dose curve; further: nearly all actives have a fitted effect of over 45% in size; further: potency means the concentration at half of the fitted maximal effect)
Summary of the method: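 Cytotoxicity measured by CellTiter-Glo luminescence (30 min, RT) in the same wells as the PR beta-lactamase agonist read. Those HEK293T cells had 16 h compound treatment at 37 C in 2% charcoal-stripped FBS medium.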

[7] = target: Thyrotropin-releasing hormone receptor (Homo sapiens) (UniProt P34981); experiment: qHTS assay to identify small molecule antagonists of the thyrotropin-releasing hormone receptor (TRHR) signaling pathway (AID 1346877; active means well fitted inhibition curve with a large enough effect in the repeat runs, not every such curve was filed as active; inconclusive means weak or mixed curves; further: potency means the concentration at half of the fitted maximal effect)
Summary of the method: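 Screening used HEK293 cells engineered with TRHR, with a brief 5 min room-temperature compound exposure preceding addition of TRH to 1 nM. The read-out was kinetic calcium-dye fluorescence, concentration-response from 15 doses in triplicate.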

[8] = target: Thyrotropin-releasing hormone receptor (Homo sapiens) (UniProt P34981); experiment: qHTS assay to identify small molecule agonists of the thyrotropin-releasing hormone receptor (TRHR) signaling pathway (AID 1346891; calls by dose curve; further: potency means the concentration at half of the fitted maximal effect)
Summary of the method: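 Agonist-mode intracellular calcium readout: kinetic fluorescence over 3 min at 1 s intervals after compound addition to TRHR-HEK293 cells (18 h seeded, 2 h dye-loaded at 37 C). Fifteen concentrations, triplicates.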

[9] = qHTS assay to identify small molecule antagonists of the TGF-beta/Smad signaling pathway (AID 1346924; active means well fitted inhibition curve with a large enough effect in the signal ratio in the repeat runs, not every such curve was filed as active; inconclusive means weak or mixed curves; the % refers to the signal ratio); details: SBE-bla HEK293T, TGF-beta/Smad reporter, beta-lactamase ratio; activity, negative = inhibition: at 76.8 µM (top of the series) unless noted
Summary of the method: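 SBE-bla HEK 293T cells were plated overnight, then received compound in DMSO plus TGF-beta1 (added as a 0.25 ng/mL solution) and were incubated 5 h at 37 C. Beta-lactamase reporter activity was read after 2 h at room temperature with LiveBLAzer B/G FRET substrate (ex 405, em 460/530 nm).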

[10] = Caspase-3/7 induction in HepG2 cells by small molecules, qHTS assay (AID 1346978); further: potency means the concentration at half of the fitted maximal effect; nearly all actives have a fitted effect of over 15% in size
Summary of the method: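 Wild-type HepG2 cells, 2,000/well, settled 5 hr at 37 C and 5% CO2, then compound-treated for 17 hr; caspase-3/7 activity read by luminescent Caspase-Glo 3/7 after 30 min at room temperature.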

[11] = target: Progesterone receptor (Homo sapiens) (UniProt P06401); experiment: qHTS assay to identify small molecule antagonists of the progesterone receptor (PR) signaling pathway (AID 1346795; active means well fitted inhibition curve with a large enough effect in the signal ratio in the repeat runs, not every such curve was filed as active; inconclusive means weak or mixed curves; the % refers to the signal ratio; further: potency means the concentration at half of the fitted maximal effect; on activity change, negative = inhibition: on the % scale 0 is the no-effect control and ±100 the full control effect); details: PR-UAS-bla HEK293T, beta-lactamase FRET ratio, 16 h; activity change, negative = inhibition: at 92.4 µM (top of the series) unless noted
Summary of the method: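 Antagonist mode with agonist R5020 at 1 nM final and 16 hr incubation at 37C. Reporter was beta-lactamase driven by UAS in HEK293T (PR-UAS-bla), 2% charcoal-stripped serum; signal from LiveBLAzer FRET substrate, 2 hr at room temperature.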

[12] = qHTS assay to identify small molecule agonists of the TGF-beta/Smad signaling pathway (AID 1346859; active means well fitted activation curve with a large enough effect in the signal ratio in the repeat runs, not every such curve was filed as active; inconclusive means weak or mixed curves; the % refers to the signal ratio; further: potency means the concentration at half of the fitted maximal effect); details: SBE-bla HEK293T, TGF-beta/Smad beta-lactamase reporter, 5 h; activation: at 76.8 µM (top of the series)
Summary of the method: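 Fluorescence (ex 405 nm; em 460 and 530 nm) was read 2 h after LiveBLAzer FRET substrate at RT. The preceding compound treatment of overnight-plated SBE-bla HEK293T cells lasted 5 h at 37 C.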

[13] = Caspase-3/7 induction in CHO-K1 cells by small molecules, qHTS cell viability counter screen (AID 1346979); further: potency means the concentration at half of the fitted maximal effect; nearly all actives have a fitted effect of over 35% in size
Summary of the method: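 Cytotoxicity counter screen: CellTiter-Fluor added to compound-treated wild-type CHO-K1 cells at 16 h (37C, 5% CO2), fluorescence measured 1 h later; same wells as caspase-3/7 measurement.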

[14] = Caspase-3/7 induction in CHO-K1 cells by small molecules, qHTS assay (AID 1346980); further: potency means the concentration at half of the fitted maximal effect; nearly all actives have a fitted effect of over 15% in size
Summary of the method: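 Wild-type CHO-K1 cells exposed to compounds for 17hr at 37 C, 5% CO2. Caspase-3/7 activity then measured by Caspase-Glo 3/7 luminescence after 30min at room temperature.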

[15] = qHTS assay to identify small molecule agonists or antagonists of the thyroid stimulating hormone receptor (TSHR) signaling pathway - wild type cell line counter screen (AID 1259384; calls by dose curve; further: on the % scale 0 is the no-effect control and ±100 the full control effect); details: HEK293 wild type, cAMP HTRF counter-screen; cAMP activity change: at 92.4 µM (top of the series), stronger effect = higher value unless noted
Summary of the method: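 Wild-type Hek293 cells, 800/well, 18 h at 37C, then compound with Ro20-1724 for 30 min RT. cAMP by HTRF (cAMP-d2/anti-cAMP cryptate), 1 h RT, fluorescence read. 15 concentrations, triplicates.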

[16] = qHTS assay to identify small molecule agonists of the estrogen receptor alpha (ER-alpha) signaling pathway in the presence of an antagonist - cell viability counter screen (AID 1259386);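 further: cells exposed to compounds for 22 h at 37 °C before the viability read; on the % scale 0 is the no-effect control and ±100 the full control effect; nearly all actives have a fitted effect of over 30% in size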
Summary of the method: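 ICI-182,780 at 10.0nM final accompanies the compound titration (15 concentrations, 22hr, 37C) on VM7Luc4E2 cells. The CellTiter-Fluor fluorescence readout runs in the same wells as the luciferase assay.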

[17] = qHTS assay to identify small molecule agonists of the TGF-beta/Smad signaling pathway - cell viability counter screen (AID 1346829); further: nearly all actives have a fitted effect of over 45% in size; further: potency means the concentration at half of the fitted maximal effect
Summary of the method: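 CellTiter-Glo luminescence readout; SBE-bla HEK 293T cells, overnight plating, compound 5 hr at 37 C/5% CO2, then bla substrate 2 hr RT, then CellTiter-Glo 30 min RT.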

[18] = Human pregnane X receptor (PXR) small molecule agonists, qHTS cell viability counter screen (AID 1346977); further: nearly all actives have a fitted effect of over 50% in size; further: potency means the concentration at half of the fitted maximal effect
Summary of the method: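 Same-well viability read: CellTiter-Fluor added after 23 hr compound exposure, fluorescence measured 1 hr later. Cells were PXR-Luc HepG2 seeded at 2,000/well in 5% charcoal-stripped FBS medium, rested 5 hr before dosing at 37 C.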

[19] = target: Estrogen receptor (Homo sapiens) (UniProt P03372); experiment: qHTS assay to identify small molecule agonists of the estrogen receptor alpha (ER-alpha) signaling pathway in the presence of an antagonist (AID 1259383; calls by dose curve; further: potency means the concentration at half of the fitted maximal effect; nearly all actives have a fitted effect of over 15% in size)
Summary of the method: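 Using VM7Luc4E2 cells seeded 24hr before treatment, antagonist ICI-182,780 (10.0nM final) was added, followed by compounds at 15 concentrations. Plates incubated 22hr; ONE-Glo luminescence quantified reporter activity.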
Tags describe the fitted curve by direction and shape or compound fluorescence and quenching.

Chain of UniProt P06401 (P06401 whole entry, looked up): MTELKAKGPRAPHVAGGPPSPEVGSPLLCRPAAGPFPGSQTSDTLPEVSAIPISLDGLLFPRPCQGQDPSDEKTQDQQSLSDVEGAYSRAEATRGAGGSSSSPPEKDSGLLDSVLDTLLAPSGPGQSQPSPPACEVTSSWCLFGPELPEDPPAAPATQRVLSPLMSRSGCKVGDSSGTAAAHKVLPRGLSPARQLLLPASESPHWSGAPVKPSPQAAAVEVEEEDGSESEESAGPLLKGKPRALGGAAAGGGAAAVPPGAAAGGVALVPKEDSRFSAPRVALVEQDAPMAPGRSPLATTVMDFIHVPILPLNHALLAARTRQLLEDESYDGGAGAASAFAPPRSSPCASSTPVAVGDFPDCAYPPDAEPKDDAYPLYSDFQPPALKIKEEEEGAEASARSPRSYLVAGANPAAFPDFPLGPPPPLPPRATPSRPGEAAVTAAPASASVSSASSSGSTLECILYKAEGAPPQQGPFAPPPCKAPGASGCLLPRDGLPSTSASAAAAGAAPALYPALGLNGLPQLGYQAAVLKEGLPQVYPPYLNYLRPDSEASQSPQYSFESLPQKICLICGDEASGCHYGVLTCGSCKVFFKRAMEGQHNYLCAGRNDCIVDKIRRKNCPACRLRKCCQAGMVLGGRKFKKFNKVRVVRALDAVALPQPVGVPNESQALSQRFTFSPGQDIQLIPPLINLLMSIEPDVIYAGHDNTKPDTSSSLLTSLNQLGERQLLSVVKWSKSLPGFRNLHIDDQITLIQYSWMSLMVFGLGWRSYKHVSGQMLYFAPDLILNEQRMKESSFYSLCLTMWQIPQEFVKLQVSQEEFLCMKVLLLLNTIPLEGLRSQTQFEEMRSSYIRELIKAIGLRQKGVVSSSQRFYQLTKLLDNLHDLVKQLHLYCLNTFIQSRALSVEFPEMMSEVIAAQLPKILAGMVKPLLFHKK
Chain of UniProt P16473 (P16473 whole entry, looked up): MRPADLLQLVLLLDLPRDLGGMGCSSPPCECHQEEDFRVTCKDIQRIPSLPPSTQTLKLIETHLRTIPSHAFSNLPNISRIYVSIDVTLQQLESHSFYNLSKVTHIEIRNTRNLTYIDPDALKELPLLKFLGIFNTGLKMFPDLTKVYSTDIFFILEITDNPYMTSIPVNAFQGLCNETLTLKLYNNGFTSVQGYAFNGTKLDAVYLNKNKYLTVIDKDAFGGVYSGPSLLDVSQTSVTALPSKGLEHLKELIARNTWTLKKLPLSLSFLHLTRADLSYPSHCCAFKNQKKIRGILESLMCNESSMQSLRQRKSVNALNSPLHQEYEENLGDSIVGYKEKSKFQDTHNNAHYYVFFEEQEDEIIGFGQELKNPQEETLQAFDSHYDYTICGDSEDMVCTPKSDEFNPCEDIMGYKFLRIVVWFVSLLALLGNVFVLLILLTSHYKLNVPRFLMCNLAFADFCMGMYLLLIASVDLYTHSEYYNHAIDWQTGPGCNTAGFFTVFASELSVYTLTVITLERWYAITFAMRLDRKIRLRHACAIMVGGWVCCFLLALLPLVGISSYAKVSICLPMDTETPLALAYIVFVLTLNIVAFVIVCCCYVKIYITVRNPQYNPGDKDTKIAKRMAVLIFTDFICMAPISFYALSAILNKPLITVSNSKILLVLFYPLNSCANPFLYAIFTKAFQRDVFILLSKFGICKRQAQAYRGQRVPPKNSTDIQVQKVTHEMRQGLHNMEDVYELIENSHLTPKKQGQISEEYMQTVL
Chain of UniProt P34981 (P34981 whole entry, looked up): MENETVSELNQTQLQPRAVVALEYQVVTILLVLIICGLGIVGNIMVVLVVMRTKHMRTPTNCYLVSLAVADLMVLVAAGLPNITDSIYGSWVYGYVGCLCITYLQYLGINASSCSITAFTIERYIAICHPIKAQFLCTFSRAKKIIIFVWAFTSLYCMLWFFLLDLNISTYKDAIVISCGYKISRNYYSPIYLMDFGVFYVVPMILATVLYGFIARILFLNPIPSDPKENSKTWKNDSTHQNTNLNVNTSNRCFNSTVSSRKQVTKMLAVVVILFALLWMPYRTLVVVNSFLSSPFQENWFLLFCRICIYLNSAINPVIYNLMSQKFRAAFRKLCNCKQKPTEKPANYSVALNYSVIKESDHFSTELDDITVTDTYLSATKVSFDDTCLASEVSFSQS
Chain of UniProt P03372 (P03372 whole entry, looked up): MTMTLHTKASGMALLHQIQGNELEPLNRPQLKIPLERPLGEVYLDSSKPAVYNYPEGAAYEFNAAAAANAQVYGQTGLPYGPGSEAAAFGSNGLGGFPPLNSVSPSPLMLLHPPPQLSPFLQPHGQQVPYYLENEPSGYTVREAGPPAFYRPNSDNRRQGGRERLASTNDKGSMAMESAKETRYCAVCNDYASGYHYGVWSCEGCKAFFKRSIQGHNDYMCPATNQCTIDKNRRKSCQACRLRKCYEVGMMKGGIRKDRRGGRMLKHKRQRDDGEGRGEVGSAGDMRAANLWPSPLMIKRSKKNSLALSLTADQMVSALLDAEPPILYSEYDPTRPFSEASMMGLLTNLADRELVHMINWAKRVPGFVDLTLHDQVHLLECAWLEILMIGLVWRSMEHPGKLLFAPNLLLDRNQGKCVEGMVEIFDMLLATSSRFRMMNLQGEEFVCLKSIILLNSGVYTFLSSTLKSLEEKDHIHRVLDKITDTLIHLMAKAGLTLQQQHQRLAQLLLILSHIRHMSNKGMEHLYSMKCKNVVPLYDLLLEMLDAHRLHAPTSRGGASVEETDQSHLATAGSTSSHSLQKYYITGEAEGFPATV

Which Potency [1] does the source give for Nc1ccc([N+](=O)[O-])cc1 here?
The Potency was active: 27.3 µM.

What about the Potency [2] of the same molecule?
Its Potency is inconclusive: 21.7 µM [cytotoxic, full curve].

And the Potency [3]?
Its Potency is inconclusive: 48.6 µM [phenotype inactive, partial curve].

And the Potency [4]?
The Potency was inconclusive: 77 µM [falling, single point].

What about the Potency [5] of the same molecule?
The Potency was active: 8.63 µM.

And the Potency [6]?
Its Potency is active: 7.7 µM.

What about the Potency [7] of the same molecule?
Its Potency is inconclusive: 33.8 µM [inhibitor].

What about the Potency [8] of the same molecule?
The Potency was inconclusive: 43.6 µM [activator, single point].

What about the activity, negative = inhibition [9] of the same molecule?
The activity, negative = inhibition was inconclusive: -0.408%.

What about the Potency [10] of the same molecule?
The Potency was inconclusive: 68.6 µM [activator, single point].

Which Potency [1] does the source give for CCc1cccc(CC)c1N(COC)C(=O)CCl here?
The Potency was inconclusive: 59.1 µM [cytotoxic] and inconclusive: 34.4 µM [cytotoxic, partial curve, poor fit].

And the Potency [2]?
Its Potency is inconclusive: 52.7 µM [cytotoxic, partial curve, poor fit].

What about the Potency [3] of the same molecule?
Its Potency is inconclusive: 59.1 µM.

What about the activity change, negative = inhibition [3] of the same molecule?
The activity change, negative = inhibition was inconclusive: -7.97%.

What about the Potency [11] of the same molecule?
The Potency was inconclusive: 7.45 µM [rising, full curve].

And the activity change, negative = inhibition [11]?
The activity change, negative = inhibition was inconclusive: -41.9%.

And the Potency [5]?
The Potency was inconclusive: 66.4 µM [rising, single point].

What about the Potency [12] of the same molecule?
The Potency was inconclusive: 54.9 µM [rising, partial curve, poor fit].

What about the Potency [13] of the same molecule?
Its Potency is inconclusive: 68.6 µM [cytotoxic, single point].

What about the Potency [14] of the same molecule?
The Potency was inconclusive: 11.8 µM [activator, single point].

For COCCC#N, which Potency [1] is on record?
The Potency was inconclusive: 66.6 µM [rising, partial curve, poor fit].

Which Potency [1] does the source give for NNC(N)=S here?
Its Potency is inconclusive: 30.6 µM [cytotoxic, partial curve].

And the Potency [2]?
The Potency was inconclusive: 48.6 µM [cytotoxic, partial curve].

What about the Potency [15] of the same molecule?
Its Potency is “inactive”.

What about the Potency [16] of the same molecule?
Its Potency is “inactive”.

And the activation [4]?
The activation was inconclusive: -20.7%.

What about the Potency [11] of the same molecule?
Its Potency is active: 11.3 µM and active: 21.7 µM.

What about the Potency [5] of the same molecule?
Its Potency is active: 12.7 µM and active: 24.3 µM.

What about the Potency [6] of the same molecule?
The Potency was inconclusive: 16 µM [cytotoxic, partial curve] and active: 43.3 µM.

And the Potency [17]?
Its Potency is “inactive”.

What about the Potency [18] of the same molecule?
The Potency was active: 30.6 µM.

And the Potency [14]?
The Potency was inconclusive: 28.4 µM [activator, single point] and inconclusive: 68.6 µM [activator, single point].

For Clc1ccc(C(Cl)(Cl)Cl)c(Cl)c1, which Potency [1] is on record?
The Potency was inconclusive: 24.5 µM [cytotoxic, full curve].

And the Potency [2]?
Its Potency is inconclusive: 48.9 µM [cytotoxic, partial curve].

What about the Potency [3] of the same molecule?
Its Potency is inconclusive: 61.6 µM [falling, partial curve].

And the activation [4]?
Its activation is inconclusive: 15%.

And the Potency [5]?
Its Potency is active: 48.9 µM.

What about the Potency [6] of the same molecule?
Its Potency is inconclusive: 15.5 µM [cytotoxic, partial curve].

What about the Potency [18] of the same molecule?
The Potency was “inactive”.

For Clc1ccc(C(c2ccc(Cl)cc2)C(Cl)Cl)cc1, which Potency [1] is on record?
The Potency was inconclusive: 69.7 µM [cytotoxic, single point].

And the Potency [2]?
The Potency was inconclusive: 69.7 µM [cytotoxic, single point] and inconclusive: 68.6 µM [cytotoxic, single point].

What about the Potency [19] of the same molecule?
Its Potency is inconclusive: 55.4 µM [activator, partial curve].

And the Potency [3]?
The Potency was active: 62.1 µM and active: 61.1 µM.

And the activation [4]?
Its activation is inconclusive: 8.84%.

What about the Potency [5] of the same molecule?
The Potency was inconclusive: 68.6 µM [cytotoxic, single point].

What about the Potency [6] of the same molecule?
The Potency was inconclusive: 69.7 µM [cytotoxic] and inconclusive: 68.6 µM [cytotoxic, single point].

And the Potency [17]?
The Potency was inconclusive: 49.8 µM [cytotoxic, partial curve, poor fit] and inconclusive: 38.9 µM [cytotoxic, partial curve].

What about the Potency [18] of the same molecule?
Its Potency is inconclusive: 70.8 µM [cytotoxic, single point] and inconclusive: 77 µM [cytotoxic].

What about the Potency [14] of the same molecule?
Its Potency is inconclusive: 69.7 µM [activator, single point] and inconclusive: 68.6 µM [activator].

What does the source list for CC(C)=CC1C(C(=O)OCc2coc(Cc3ccccc3)c2)C1(C)C (stereo not drawn)?
Potency [1]: inconclusive: 68.7 µM [cytotoxic] and inconclusive: 48.5 µM [cytotoxic, single point]; Potency [2]: inconclusive: 68.7 µM [cytotoxic, single point]; Potency [3]: inconclusive: 54.5 µM [falling, partial curve] and inconclusive: 61.1 µM [falling, partial curve]; Potency [4]: inconclusive: 68.7 µM [cytotoxic, partial curve, poor fit]; Potency [11]: active: 48.6 µM; activity change, negative = inhibition [11]: inconclusive: -37.3%; Potency [5]: inconclusive: 68.7 µM [cytotoxic, single point]; Potency [6]: inconclusive: 68.7 µM [cytotoxic, single point] and inactive; Potency [13]: inconclusive: 38.5 µM [cytotoxic, partial curve, poor fit]
